# In PubChem BioAssay AID904 (National Center for Advancing Translational Sciences (NCATS), 2007):
# Out of some 55,000 compounds screened, about 530 (0.96%) were called active. The shares of active, inactive and inconclusive entries below differ from those in the screen. Calls follow the shape of the dose curve; as a rule, active = well fitted cell-killing curve with a large enough effect; inconclusive = small, poorly fitted or top-dose-only effect; inactive = no such curve, though single readings can be large or run the other way. A potency beside an inconclusive call is a rough fit, not a confirmed value.
# Assay: qHTS Screen for Compounds that Selectively Target Cancer Cells with p53 Mutations: Cytotoxicity of p53 Null Cells at the Nonpermissive Temperature; also: nearly all actives have a fitted effect of over 50% in size;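 as to activity, negative = cell killing: 0% = DMSO only and -100% = full killing by 100 µM tamoxifen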
# Conditions: H1299 p53-null (neo) cells, 39C, ATPlite viability, 24 h; activity, negative = cell killing: at 46.1 µM (top of the series)
# Outline: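 Luminescent ATP signal reported cell survival after H1299 lines (neo, p53 null; or p53 A138V) received up to 46 uM compound and 24 hr incubation at 39C.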
# Potency is read from the fitted curve at half-maximal effect; tags tell the direction and shape of the fitted curve.
Structure (SMILES),Potency,"activity, negative = cell killing"
COc1ccc(-n2ncc3c(N4CCN(c5cccc(C)c5)C(C)C4)ncnc32)cc1 (stereo not given),"inconclusive: 25.1 µM [cytotoxic, single point]",–
O=C1CC(c2nc3ccccc3n2CCCCOc2ccccc2)CN1c1ccccc1Cl (stereo not given),active: 12.6 µM,–
Cc1ccc(Nc2nc(N)nc(CSc3nncn3C)n2)cc1,"inconclusive: 10 µM [cytotoxic, partial curve]",–
CC(=O)Nc1c(C)nn(-c2ccccc2)c1N1CCC(C(=O)NCc2ccc(Cl)cc2)CC1,inactive,–
O=C(Nc1cc(F)ccc1F)C1CCN(c2nc3ccccc3n3cccc23)CC1,"inconclusive: 25.1 µM [cytotoxic, single point]",–
COc1ccc(CNC(=O)c2cc3cc(C)ccc3n2C)cc1,"inconclusive: 1.26 µM [cytotoxic, full curve]",–
Cc1ccccc1-c1ncnn1-c1sc2c(c1C#N)CCCCC2,"inconclusive: 0.631 µM [cytotoxic, partial curve]",–
Cc1cc(C)cc(Nc2cc(-c3ccccc3)nc(C)n2)c1,"inconclusive: 12.6 µM [cytotoxic, single point]",–
COc1ccc(NC(=O)Cn2c(=O)n(-c3ccccc3)c(=O)c3c4c(sc32)CCCC4)cc1,"inconclusive: 1.26 µM [cytotoxic, partial curve]",–
CCCOc1ccc(N2CC(C(=O)Nc3cccc(Cl)c3Cl)CC2=O)cc1 (stereo not given),"inconclusive: 0.199 µM [cytotoxic, full curve]",–
CCCc1cc(N2CCN(c3cc(Cl)ccc3C)CC2)n2cnnc2n1,"inconclusive: 31.6 µM [cytotoxic, single point]",–
O=c1c2sc(-c3ccccc3)cc2nc2n1CCC2,"inconclusive: 11.2 µM [cytotoxic, partial curve, poor fit]",–
COc1ccc(-c2cc(NCc3ccc(F)cc3)n3cnnc3n2)cc1,"inconclusive: 31.6 µM [cytotoxic, single point]",–
COc1cccc(-c2nc(SCC(=O)Nc3ccc4c(c3)OCO4)c(-c3ccccc3)[nH]2)c1,"inconclusive: 35.5 µM [cytotoxic, single point]",–
COc1cccc(CNC(=O)Cn2cc3c(n2)-c2c(oc(C(=O)N4CCCC4)c2C)CC3)c1OC,"inconclusive: 0.005 µM [cytotoxic, full curve, poor fit]",–
CCOc1ccc(-c2oc3ccccc3c(=O)c2O)cc1OCC,"inconclusive: 6.31 µM [cytotoxic, partial curve, poor fit]",–
CCCS(=O)(=O)c1ncc(Cl)c(C(=O)N(Cc2ccccc2)Cc2ccco2)n1,"inconclusive: 12.6 µM [cytotoxic, single point]",–
CCC(O)c1nc2ccccc2n1Cc1cccc(Cl)c1 (stereo not given),"inconclusive: 0.794 µM [cytotoxic, full curve, poor fit]",–
CCOC(=O)Cc1ccc(NC(=O)n2ncc3c(C)cccc32)cc1,"inconclusive: 6.31 µM [cytotoxic, partial curve]",–
CCOc1ccc(CNC(=O)C2CCN(S(=O)(=O)c3c(C)noc3/C=C/c3ccc(C)cc3)CC2)cc1OC,inactive,–
Oc1cccc(C(Nc2ccccn2)c2ccc3cccnc3c2O)c1Cl (stereo not given),active: 3.98 µM,–
Cc1ccc(NC(=O)C(=O)NCC(c2cccnc2)N2CCOCC2)cc1C (stereo not given),"inconclusive: 20 µM [cytotoxic, single point]",–

Structure (SMILES),Potency,"activity, negative = cell killing"
Cc1cc(C)cc(OC(=O)c2cc(-c3ccc4c(c3)OCCO4)on2)c1,active: 31.6 µM,–
CCc1ccc(NC(=O)NCCN2CCc3ccccc3C2)cc1,"inconclusive: 4.47 µM [cytotoxic, full curve, poor fit]",–
CCOC(=O)Cc1c(C)nc2c(-c3ccc(OC)c(OC)c3)c(C)nn2c1C,–,inconclusive: -35.2% [cytotoxic]
CCC(C)Cn1c(COc2ccc(OC)cc2)nc2ccccc21 (stereo not given),"inconclusive: 12.6 µM [cytotoxic, single point]",–
COc1ccc(NC(=O)Nc2nnc(SCC(=O)Nc3cccc(C)c3C)s2)cc1,inactive,–
Cc1ccc(CN2C(=O)SC(Nc3ccccc3)C2=O)cc1 (stereo not given),"inconclusive: 0.251 µM [cytotoxic, full curve, poor fit]",–
CCc1ccccc1N1CC(c2nc3ccccc3n2CCCCOc2ccccc2OC)CC1=O (stereo not given),"inconclusive: 15.8 µM [cytotoxic, single point]",–
CC(=O)Nc1ccc(Nc2nc3ccc(Cl)cc3n3cnnc23)cc1,"inconclusive: 0.0158 µM [cytotoxic, full curve]",–
CCC1CCCCN1C(=O)CSc1n[nH]c(-c2ccccc2)n1 (stereo not given),"inconclusive: 12.6 µM [cytotoxic, partial curve]",–
O=C(CC1(O)C(=O)N(CCc2ccccc2)c2ccc(Br)cc21)c1ccccc1 (stereo not given),"inconclusive: 22.4 µM [cytotoxic, single point]",–
CC(C)COc1ccc(C(=O)Nc2cc3nn(-c4ccccc4)nc3cc2Cl)cc1,inactive,–
O=C(c1ccc2c(c1)OCCO2)N(Cc1cccnc1)c1nc2c(Cl)cccc2s1,inactive,–
O=C(COc1ccccc1)NCCc1csc(-c2ccc(Cl)cc2)n1,"inconclusive: 0.1 µM [cytotoxic, full curve, poor fit]",–
COc1ccc(CCn2c(=O)c3cccnc3n(CC(=O)Nc3ccc(C)c(F)c3)c2=O)cc1OC,"inconclusive: 15.8 µM [cytotoxic, single point]",–
Cc1cccc(N(CC(O)Cn2c3ccccc3c3ccccc32)S(=O)(=O)c2ccc(F)cc2)c1 (stereo not given),"inconclusive: 5.01 µM [cytotoxic, partial curve]",–
Cc1ccccc1S(=O)Cc1ccc(C(=O)N2CCN(c3cccc(C)c3C)CC2)o1 (stereo not given),"inconclusive: 0.501 µM [cytotoxic, full curve]",–
COc1ccc(-n2ncc3c(NC(C)(C)CO)ncnc32)cc1,"inconclusive: 15.8 µM [cytotoxic, single point]",–
O=C(CSc1nnnn1-c1cccc2c1CCCC2)N1CCCC1,inactive,–
Cc1ccc2nc(N3CCC(C(=O)N4CCN(c5cccc(C)c5C)CC4)CC3)[nH]c2c1,"inconclusive: 35.5 µM [cytotoxic, partial curve, poor fit]",–
CCOC(=O)c1ccc(N2C(=O)c3n[nH]c(C)c3C2c2cccc(Br)c2)cc1 (stereo not given),"inconclusive: 15.8 µM [cytotoxic, single point]",–
CCCN(CCC)CCCNC(=O)c1cnn(-c2ccc(F)cc2)c1-n1cccc1,inactive,–
CCc1nc(SC)ncc1C(=O)N1CCN(c2cc(Cl)ccc2C)CC1,inactive,–

Structure (SMILES),Potency,"activity, negative = cell killing"
CC(=O)N1CCc2c(sc3nc(SCC(C)C)n(-c4ccc(C)c(Cl)c4)c(=O)c23)C1,"inconclusive: 31.6 µM [cytotoxic, single point]",–
Cc1ccc(/C=C/c2onc(C)c2S(=O)(=O)N2CCC(C(=O)N3CCOc4ccc(C)cc43)CC2)cc1,"inconclusive: 0.316 µM [cytotoxic, full curve]",–
COc1ccc(C(CCN(Cc2ccc(OC)c(OC)c2)C(=O)CCl)c2ccccc2)cc1 (stereo not given),"inconclusive: 3.16 µM [cytotoxic, partial curve]",–
CCc1ccc(NS(=O)(=O)c2ccc3oc(=O)c4ncn(CC)c4c3c2)cc1,"inconclusive: 25.1 µM [cytotoxic, single point]",–
COc1ccc(NC(=O)CCS(=O)(=O)c2nc(-c3cccs3)cc(C(F)(F)F)n2)cc1,inactive,–
Cc1ccc(-n2c(C)cc(C3=NNC(=NC4CC4)SC3)c2C)cc1C,"inconclusive: 35.5 µM [cytotoxic, single point]",–
O=S(=O)(Nc1cccc(C(F)(F)F)c1)c1ccc(NS(=O)(=O)c2ccc3c(c2)OCCO3)cc1,inactive,–
CC(C)Oc1ccc(CN2CCc3nc(Nc4ccc5c(c4)OCCO5)ncc3C2)cc1,inactive,–
COc1ccc(CSc2nc3ccncc3n2CC(=O)Nc2cc(C)cc(C)c2)cc1,"inconclusive: 7.94 µM [cytotoxic, partial curve]",–
CCc1c(C)sc2c1CCN(Cc1cccc(OC)c1)C2c1ccccc1 (stereo not given),"inconclusive: 11.2 µM [cytotoxic, partial curve]",–
CCc1ccc(C(=O)CC2(O)C(=O)N(CCc3ccccc3)c3ccc(Br)cc32)cc1 (stereo not given),"inconclusive: 10 µM [cytotoxic, partial curve]",–
COc1ccc(CNC(=O)Cn2c(=O)nc(-c3ccccc3)c3cc(Cl)ccc32)cc1OC,"inconclusive: 0.0178 µM [cytotoxic, full curve, poor fit]",–
COc1ccc(N(Cc2ccccc2)C(=O)c2nc(S(C)(=O)=O)ncc2Cl)cc1,active: 11.2 µM,–
COc1ccc(C2CC(=O)c3c([nH]c(C(=O)OCc4ccccc4)c3C)C2)cc1 (stereo not given),"inconclusive: 31.6 µM [cytotoxic, single point]",–
Cc1ccc(N2CCn3c2nc2c3c(=O)n(C/C=C/c3ccccc3)c(=O)n2C)cc1C,"inconclusive: 0.501 µM [cytotoxic, full curve, poor fit]",–
Cc1cc(C)n(CCc2nc3c4ccccc4nc(SCc4ccc(F)cc4)n3n2)n1,inactive,–
COCCCNC(=O)c1ccc(Cn2c(SCc3ccc(F)cc3)nc3cccnc32)cc1,active: 12.6 µM,–
CC(=O)c1ccc(N2CCN(C(=O)c3cc(S(=O)(=O)N4CCCCCC4)cn3C)CC2)cc1,"inconclusive: 6.31 µM [cytotoxic, partial curve]",–
O=C(c1cc2ccc3cccnc3c2[nH]1)N1CCCCC1,active: 0.794 µM,–
Cc1ccccc1OC(=O)c1cc(-c2ccc3c(c2)OCCO3)on1,"inconclusive: 25.1 µM [cytotoxic, single point]",–
COc1ccc(NC(=O)c2csnn2)cc1Cl,"inconclusive: 0.126 µM [cytotoxic, full curve]",–
